Drawing on ChEMBL document CHEMBL1157539, “Thousands of chemical starting points for antimalarial lead identification” (Nature, 2010), this text covers IFI for 90 compounds.

In all, about 13,000 compounds were measured (“IFI”: median about 4, highest 2% from about 17 on). The list shows a part of the results.

The nature of the experiment: GSK_TCMDC: Inhibition Frequency Index (IFI). The number of non-kinase HTS assays where a compound showed > 50 % inhibition, expressed as a percentage of the number of such assays in which the compound was tested (-0 is zero). Format: functional.
As for `CC(C)C[C@H]1c2[nH]c3ccc(Cl)cc3c2CCN1C(=O)CCc1ccccc1`, the IFI stood at 4.46%.
`O=C(Nc1ccc(OC2CCN(Cc3ccc(F)cc3)CC2)c(Cl)c1)c1cccs1`: the IFI came to 9.52%.
For the compound `NCc1ccc(CNCc2ccc(-c3ccc(-c4nc5cc(F)ccc5[nH]4)cc3)cc2)cc1`, the IFI was 10.7%.
The figure for `CC1CCCN(S(=O)(=O)c2ccc(NC(=O)c3cc(-c4ccccc4O)n[nH]3)cc2)C1` (stereo not given) is 12.7%; for `O=C(Cn1c(SCc2cccc(F)c2F)cc(=O)c2ccccc21)N(CCn1ccnc1)Cc1ccc(-c2ccc(C(F)(F)F)cc2)cc1` it is 4.35%; for `CCCNCc1ccc(-c2ccc(CN(Cc3cccs3)C(=O)C3CCN(C)CC3)cc2)nc1` it is 3.42%.
The figure for `COC(=O)c1cccc(CNCc2ccc(-c3ccc(-c4nc5ccccc5[nH]4)s3)cc2)c1` is 7.69%.
The figure for `N=c1sc2ccccc2n1CC(O)c1ccc(Cl)c(Cl)c1` (stereo not given) is -0%.
Turning to `COc1ccc(C)c(Nc2ccnc(Nc3cccc(-c4nc5ccccc5[nH]4)c3)n2)c1`, the IFI amounted to 14.8%.
The figure for `Cc1ccc(Sc2ccc(NC(=O)CN3CCN(C(=O)c4ccco4)CC3)cc2)cc1C` is 5.66%; for `CC1CCN(CCNC(=O)c2ccc3c(=O)n(Cc4ccc(Cl)cc4)c(=S)[nH]c3c2)CC1` it is 8.09%.
Compound `Cc1cc(C(=O)NC2CCN(CC3(c4ccccc4)CCCCC3)CC2)on1` gave an IFI of 6.38%.
The figure for `COc1cc(Nc2ccnc3ccc(C(F)(F)F)cc23)ccc1OCCCc1ccccc1` is 5.15%.
The figure for `O=C(Nc1ccc(OC2CCN(Cc3ccsc3)C2)c(Cl)c1)c1ccco1` (stereo not given) is 0%; for `c1cncc(CN2CCN(Cc3ccc(-c4ccc(-c5nc6ccccc6[nH]5)s4)cc3)CC2)c1` it is 4.96%.
The figure for `O=S(=O)(NCCN1CCCC1)c1ccc(-c2ccc(CNCc3ccc(F)cc3)cc2)cc1` is 11.8%; for `COc1ccc(Nc2nccc(N3CCC(NC(=O)C(C)c4ccc(Cl)cc4)C3)n2)cc1` (stereo not given) it is 10.4%; for `O=C(Nc1ccc(CC(=O)N2CCc3cc(Cl)c(N4CCN(C/C=C/c5ccccc5)CC4)cc32)cc1)Nc1cccc([N+](=O)[O-])c1` it is -0%.
`CCN(CC)C(=O)c1cnc(-c2ccccc2)nc1Oc1cccc(Cl)c1`: the IFI is 2.33%.
As to `CCc1ccc(NC(=O)c2ccc(CN3CCCN(Cc4ccc(C)s4)CC3)cc2)cc1`, the IFI was found to be 8.59%.
`CC1(C)N=C(N)N=C(N)N1OCC1COc2ccccc2O1` (stereo not given) yielded an IFI of 1.46%.
The figure for `O=C(Nc1cccc(-c2cccc(-c3nc4ccccc4[nH]3)c2)c1)Nc1ccc2c(c1)OCO2` is 4.95%; for `Clc1ccc(CNc2ccnc(NCCc3coc4ccccc34)n2)c(Cl)c1` it is 8%.
With `CCCn1c(Sc2ccc(C#N)c([N+](=O)[O-])c2)nnc1-c1ccc(N(C)C)cc1`, the IFI amounted to 3.57%.
The compound `CCCN(Cc1nnc(-c2ccco2)o1)C(=O)C1CCN(c2ncc(C(F)(F)F)cc2Cl)CC1` yielded an IFI of 4.49%.
The figure for `O=C(Cc1cccc2ccccc12)NC1CCN(c2ccnc3cc(Cl)ccc23)C1` (stereo not given) is 1.54%; for `O=C(NCc1cccc(Br)c1)c1ccc(CNC2CCN(Cc3ccccc3)CC2)cc1` it is 2.96%.
As to `COc1cccc(C2CCN(CCN3CCC(NC(=O)c4ccc(-c5ccc(C#N)cc5)cc4)CC3)CC2)c1`, the IFI was found to be 3.64%.
The figure for `CC(C)Cn1cc2c(ccc3nc(N)nc(N)c32)n1` is 1.56%.
Regarding `CCNc1cc(C)nc(Nc2ccccc2)n1`, the IFI came out at 2.94%.
The figure for `O=C(Nc1ccc(Cl)cc1)Nc1ccc(-c2csc(-c3nc4ccccc4[nH]3)c2)cc1` is 3.57%.
On to `CC(C)c1sc(N2CCCCC2)nc1C(=O)Nc1ccc(F)cc1C(F)(F)F`, for which the IFI was determined as 0%.
The compound `CCCCCCCc1c(C)nc2cc(OC)ccc2c1O` came in with an IFI of -0%.
The figure for `COc1ccc2ncc(C#N)c(CCN3CCC(NCc4ccc5c(n4)NC(=O)CS5)CC3)c2n1` is 3.73%; for `Cc1cccc(OCC2CCN(c3ncc(C(=O)NC4CC4)cc3Cl)CC2)c1` it is -0%; for `CN1CCC[C@H]1COc1ccc(CN2CC[C@H](NC(=O)c3ccc(Cl)c(Cl)c3)C2)cc1Cl` it is 6.67%.
The figure for `Cn1cccc1C(=O)NCC(CCNc1cc(=O)c2ccccc2[nH]1)NCc1cc(Br)cc(Br)c1` (stereo not given) is 7.25%; for `C=CCc1cc(OC)ccc1OCCCOc1c(C)nc(N)nc1N` it is 3.7%; for `c1ccc(COc2ccc(COc3ccc(Cn4ccnc4)cc3)cc2)cc1` it is 2.91%.
Consider `COc1ccc2nccc([C@@H](O)CN3CCC(NC(=O)C(c4ccsc4)N4CCN(c5ccccc5OC)CC4)CC3)c2c1` (stereo not given in full), for which the IFI is -0%.
The figure for `Cc1ccc(Nc2cc(C)nn2-c2nc(C)cc(O)n2)cc1` is 12.3%; for `CS(=O)(=O)c1cccc(-c2cnc(N)c3cc(-c4ccc(F)cc4)ccc23)c1` it is 5.38%; for `Cc1cc(-c2cccc3c(NC(=O)N4CCc5cc6nccc(N7CCN8CCC[C@H]8C7)c6cc54)cccc23)cc(C)n1` it is 8.03%.
Consider `N#Cc1ccc2c(c1)CN(CCC1CCC(NC(=O)c3cc4cnccc4[nH]3)CC1)CC2` (stereo not given), for which the IFI came to 1.53%.
The compound `CCc1cn2c3c(cc(C(=O)N[C@@H](Cc4ccccc4)[C@H](O)CN[C@@H](C)CC)cc13)N(C)S(=O)(=O)CC2` gave an IFI of 1.47%.
The figure for `CC1CN(c2ccnc3ccc(Sc4ccc(Oc5ccccc5)cc4)cc23)CC(C)N1` (stereo not given) is 13.6%.
The figure for `Cc1ccc(/C=C/C(=O)NCCCCCN2CCN(C(=O)Nc3ccc(Cl)c(C(F)(F)F)c3)CC2)cc1` is 6.86%.
The figure for `CN1CCN(C(C(=O)NCc2cc(Cl)cc(Cl)c2)c2ccc(NC(=O)Nc3ccccc3)cc2)CC1` (stereo not given) is 5%; for `CC[C@H]1CN(Cc2cccc(O)c2)CC[C@H]1CCCc1ccnc2ccc(O)cc12` it is 8.45%.
`Cc1nc(C)c(-c2cccc(Oc3ccc(Cl)cc3)c2)c(O)c1Br` returned an IFI of 7.58%.
The figure for `COc1ccc(CN2CCN(CC(=O)Nc3cc(Cl)ccc3-n3cncn3)CC2)cc1F` is 1.35%.
The figure for `Oc1cccc(Nc2ccnc3cc(-c4cc5ccccc5o4)ccc23)c1` is 5.04%.
The figure for `Nc1nc(N)c2c(Sc3ccc(F)cc3)cccc2n1` is 2.96%; for `CCOC(=O)C(Oc1ccc2ccccc2c1)C(=O)OCC` it is 1.46%.
Compound `COc1cc(NC(=O)/C=C/c2cc(F)cc(F)c2F)cc(OCCN2CCN(CCN3CCOCC3)CC2)c1` registered an IFI of 1.46%.
The figure for `N#CC(c1ccc(Br)cc1)c1ccc2c(C(F)(F)F)cc(C(F)(F)F)nc2n1` (stereo not given) is 13.7%.
The figure for `Cc1ccc(Oc2c(-c3ccccc3CN3CCCC3CN(C)C)cnn(C)c2=O)cn1` (stereo not given) is -0%; for `COc1ccc2nccc([C@@H](O)CN3CCC(NS(=O)(=O)c4cc(Br)c(Br)s4)CC3)c2c1` it is 0%.
Compound `CN(CCN1CCC(c2c[nH]c3ccccc23)CC1)c1ccc(-c2nc3cc(Cl)c(Cl)cc3[nH]2)cc1` came in with an IFI of 5.71%.
`COc1ccccc1C1CCN(C2CCC(NC(=O)/C=C/c3cc(C(F)(F)F)cc(C(F)(F)F)c3)CC2)CC1` (stereo not given) had an IFI of 10%.
The figure for `O=C(c1ccc(Cl)cc1)C1CCCN(C2CCN(CCc3ccccc3)CC2)C1` (stereo not given) is 8.11%; for `CS(=O)(=O)NCCCNCc1ccc(-c2cccc(-c3nc4cc(C(F)(F)F)ccc4[nH]3)c2)cc1` it is 2.97%.
`c1ccc(COc2ccc(Nc3ncnc4ccc(-c5ccc(CN6CCSCC6)o5)cc34)cc2)cc1` displayed an IFI of 2.26%.
The figure for `Cc1nc(N)nc(N)c1CCCOc1ccc(Br)cc1` is 1.42%; for `O=[N+]([O-])c1cccc(C(Nc2ccccn2)c2ccc3cccnc3c2O)c1` (stereo not given) it is 8.74%.
The figure for `Cc1cc(-c2cccc(CNC3CCN(C)CC3)c2)ccc1S(=O)(=O)NCCN1CCCC1` is 1.9%; for `COc1cc2c(cc1OC)CN(CCc1ccc(NC(=O)c3cc4cc(OC(F)(F)F)ccc4[nH]3)cc1)CC2` it is 6.19%; for `Cc1ccc(C(C)C)c(Oc2cnc(NC(CO)c3ccccc3)nc2N)c1` (stereo not given) it is 3.51%.
The figure for `NC(=O)c1ccccc1OCC(=O)Nc1cccc(-c2cccc(-c3nc4ccccc4[nH]3)c2)c1` is 8.55%; for `CN1CCN(C(C(=O)NCc2cc(Cl)cc(Cl)c2)c2ccc(Nc3cccc(C(F)(F)F)c3)cc2)CC1` (stereo not given) it is 12.9%; for `COc1ccc(N2C(=O)c3c(c4ccccc4n3C)C2c2ccccc2O)cc1` (stereo not given) it is 3.96%.
In the case of `N#Cc1ccc(-c2ccc(C(=O)NCCCCN3CCC(c4cn(CCCO)c5ccccc45)CC3)cc2)cc1`, the IFI came out at 3.74%.
The figure for `Cc1ccc(Oc2ccc(CNc3nc(Nc4cccc(F)c4)nc(Nc4cccc(F)c4)n3)cc2)cc1` is 0%.
In turn, `CN1CCN(CCCN(Cc2csc(-c3ccc(CNCc4ccccc4)cc3)n2)C(=O)Nc2ccc3ccccc3c2)CC1` returned an IFI of 6.25%.
In turn, `CC(C)COc1ccc(Cl)cc1Cc1ccc(-c2nc3cc(CCN(C)C)ccc3[nH]2)o1` gave an IFI of 16%.
The figure for `Cc1cc2c(cc1Cl)N(C(=O)Nc1cc(F)cc(-c3cncnc3)c1)CC2` is -0%; for `CCc1cn2c3c(cc(C(=O)N[C@@H](Cc4cc(F)cc(F)c4)[C@H](O)CNC4CCOCC4)cc13)N(C)S(=O)(=O)CC2` it is 1.46%.
In turn, `COc1ccc2nccc(NC(=O)CNCc3ccc(-c4ccccc4)cc3)c2c1` showed an IFI of 6.11%.
The figure for `N#CCCN1CCN(Cc2cccc(-c3ccc(-c4nc5ccccc5[nH]4)cc3)c2)CC1` is 1.41%; for `Cc1nnc2c(N(C(=O)NCCc3ccccc3)C(=O)NCCc3ccccc3)cc3cc(Cl)ccc3n12` it is -0%.
The figure for `CNC(=O)/C=C/c1cc(NC(=O)Nc2cc(C)nc3c(F)cccc23)ccc1OC` is 1.41%; for `CCN1CCC(NCc2ccc(-c3ccc(Cl)s3)cc2)CC1` it is 3.6%; for `Cc1nc(O)c2c(ccc3ccc(CN(C)c4ccc(C(=O)N[C@@H](CCC(=O)O)C(=O)O)cc4)cc32)n1` it is -0%.
The figure for `Cc1ccc(Nc2nccc(Nc3ccc4c(C)n[nH]c4c3)n2)cc1F` is 2.13%; for `Cc1cc(N[C@@H](Cc2ccccc2)C(=O)NCCOc2ccccc2)nc(NCc2ccccc2C)n1` it is 9.76%; for `NC1=NC(c2ccccc2)(c2ccccc2)C(=O)N1CCOc1ccccc1` it is 5%.
Turning to `Cc1cccc(Nc2c(-c3cc(Br)ccc3O)nc3ncccn23)c1`, the IFI was 8.7%.
The figure for `COc1ccc2nccc([C@@H](O)CN3CCC(NC(=O)/C=C/c4ccc5ccccc5n4)CC3)c2c1` is 2.94%; for `CCCC(C)NC(=O)C(N)Cc1cccc(I)c1` (stereo not given) it is -0%; for `CN1CCN(c2ccc(Nc3c4ccccc4nc4ccccc34)cc2)CC1` it is 6.72%.
